Article PMC12501022
These are yes or no findings as the source states them, for the method shown. Binding seen in cells or lysates may run through a third protein. Some entries that bind do so weakly or less than the wild type. For some of these results: Tags and fused reporters may be left off the sequences shown. One block for each substance: values may come before it.

Amino acid sequences for entries named in this document (tags omitted).
UniProt Q96CV9: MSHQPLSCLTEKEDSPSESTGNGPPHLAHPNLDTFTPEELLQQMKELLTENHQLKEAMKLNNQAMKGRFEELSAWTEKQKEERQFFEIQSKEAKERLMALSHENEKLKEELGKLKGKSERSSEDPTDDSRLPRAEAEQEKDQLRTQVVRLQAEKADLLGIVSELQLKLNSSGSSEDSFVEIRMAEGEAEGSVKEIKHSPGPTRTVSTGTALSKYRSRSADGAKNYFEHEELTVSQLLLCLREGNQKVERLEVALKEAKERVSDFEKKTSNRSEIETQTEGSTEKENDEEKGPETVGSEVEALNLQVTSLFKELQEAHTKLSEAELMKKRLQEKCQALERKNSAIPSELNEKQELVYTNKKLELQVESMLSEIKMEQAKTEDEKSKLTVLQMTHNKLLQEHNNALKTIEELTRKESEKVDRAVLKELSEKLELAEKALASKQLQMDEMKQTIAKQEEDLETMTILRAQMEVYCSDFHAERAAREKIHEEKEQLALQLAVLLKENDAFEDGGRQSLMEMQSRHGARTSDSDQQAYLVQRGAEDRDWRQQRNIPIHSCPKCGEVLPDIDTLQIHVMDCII
UniProt O60238: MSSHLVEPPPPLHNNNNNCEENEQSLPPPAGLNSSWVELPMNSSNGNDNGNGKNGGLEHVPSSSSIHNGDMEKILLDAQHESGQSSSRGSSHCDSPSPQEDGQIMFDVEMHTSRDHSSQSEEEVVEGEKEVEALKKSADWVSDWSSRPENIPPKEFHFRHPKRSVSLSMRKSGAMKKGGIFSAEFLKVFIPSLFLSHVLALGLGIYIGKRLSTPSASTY
UniProt P08670: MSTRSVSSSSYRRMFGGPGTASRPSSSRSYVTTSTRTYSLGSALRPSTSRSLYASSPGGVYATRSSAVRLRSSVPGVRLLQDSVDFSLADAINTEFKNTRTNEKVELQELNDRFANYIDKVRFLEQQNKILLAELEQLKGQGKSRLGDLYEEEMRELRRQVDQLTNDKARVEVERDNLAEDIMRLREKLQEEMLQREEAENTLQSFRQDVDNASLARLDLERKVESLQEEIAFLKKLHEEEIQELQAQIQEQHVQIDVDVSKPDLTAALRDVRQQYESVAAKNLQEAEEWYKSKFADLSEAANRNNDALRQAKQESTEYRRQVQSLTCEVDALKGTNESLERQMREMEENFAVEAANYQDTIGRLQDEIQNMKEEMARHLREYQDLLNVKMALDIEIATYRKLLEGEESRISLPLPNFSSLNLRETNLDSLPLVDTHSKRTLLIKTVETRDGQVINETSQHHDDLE
UniProt P19474: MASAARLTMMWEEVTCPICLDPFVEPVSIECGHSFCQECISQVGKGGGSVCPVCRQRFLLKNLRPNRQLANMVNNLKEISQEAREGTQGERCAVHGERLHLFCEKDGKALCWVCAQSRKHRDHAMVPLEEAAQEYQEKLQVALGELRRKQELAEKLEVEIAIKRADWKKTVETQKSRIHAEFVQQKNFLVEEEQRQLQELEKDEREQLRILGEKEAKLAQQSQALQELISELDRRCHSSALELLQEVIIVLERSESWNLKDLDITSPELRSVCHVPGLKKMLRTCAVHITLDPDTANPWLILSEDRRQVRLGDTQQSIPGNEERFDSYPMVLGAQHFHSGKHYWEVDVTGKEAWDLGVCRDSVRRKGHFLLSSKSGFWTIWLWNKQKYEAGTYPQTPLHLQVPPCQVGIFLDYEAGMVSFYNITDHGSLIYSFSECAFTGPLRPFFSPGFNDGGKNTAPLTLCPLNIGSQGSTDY

Legend:
Flag-OPTN = Flag-OPTN (UniProt Q96CV9); assay: co-IP; 293T co-transfected with Myc-Vimentin and a Flag-tagged cargo receptor for 48 h; IP with anti-Flag, blot with anti-Flag and anti-Myc
Flag-NBR1 = molecular target: T1, Flag-NBR1 (UniProt Q14596); assay: as above
T1 sequence: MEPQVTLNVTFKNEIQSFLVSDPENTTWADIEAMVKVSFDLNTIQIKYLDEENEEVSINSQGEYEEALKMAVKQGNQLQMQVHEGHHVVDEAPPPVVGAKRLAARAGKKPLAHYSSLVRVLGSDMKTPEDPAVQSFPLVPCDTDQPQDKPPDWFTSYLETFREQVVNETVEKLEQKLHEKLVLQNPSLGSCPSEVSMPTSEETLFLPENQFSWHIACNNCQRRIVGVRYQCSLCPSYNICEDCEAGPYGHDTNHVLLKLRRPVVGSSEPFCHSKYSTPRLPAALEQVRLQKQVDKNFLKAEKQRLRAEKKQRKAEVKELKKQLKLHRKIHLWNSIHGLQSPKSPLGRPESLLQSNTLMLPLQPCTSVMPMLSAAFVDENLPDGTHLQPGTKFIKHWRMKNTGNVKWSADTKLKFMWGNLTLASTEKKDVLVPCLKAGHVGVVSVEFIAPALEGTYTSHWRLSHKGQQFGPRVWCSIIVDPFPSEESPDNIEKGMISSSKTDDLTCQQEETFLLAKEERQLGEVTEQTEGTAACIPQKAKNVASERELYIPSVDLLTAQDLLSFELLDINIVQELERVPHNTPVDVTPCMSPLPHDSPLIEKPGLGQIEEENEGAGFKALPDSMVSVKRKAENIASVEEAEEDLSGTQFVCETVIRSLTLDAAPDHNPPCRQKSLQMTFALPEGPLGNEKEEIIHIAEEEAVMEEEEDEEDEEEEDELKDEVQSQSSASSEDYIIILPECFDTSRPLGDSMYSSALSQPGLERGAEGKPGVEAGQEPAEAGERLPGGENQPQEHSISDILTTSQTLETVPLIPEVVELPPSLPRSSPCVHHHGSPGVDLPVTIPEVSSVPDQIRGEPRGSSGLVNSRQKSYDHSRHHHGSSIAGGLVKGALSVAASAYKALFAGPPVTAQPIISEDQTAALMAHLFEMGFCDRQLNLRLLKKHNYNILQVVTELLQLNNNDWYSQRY

Flag-NIX = Flag-NIX (UniProt O60238); assay: as above
Flag-NDP52 = molecular target: T2, Flag-NDP52 (UniProt Q13137); assay: as above
T2 sequence: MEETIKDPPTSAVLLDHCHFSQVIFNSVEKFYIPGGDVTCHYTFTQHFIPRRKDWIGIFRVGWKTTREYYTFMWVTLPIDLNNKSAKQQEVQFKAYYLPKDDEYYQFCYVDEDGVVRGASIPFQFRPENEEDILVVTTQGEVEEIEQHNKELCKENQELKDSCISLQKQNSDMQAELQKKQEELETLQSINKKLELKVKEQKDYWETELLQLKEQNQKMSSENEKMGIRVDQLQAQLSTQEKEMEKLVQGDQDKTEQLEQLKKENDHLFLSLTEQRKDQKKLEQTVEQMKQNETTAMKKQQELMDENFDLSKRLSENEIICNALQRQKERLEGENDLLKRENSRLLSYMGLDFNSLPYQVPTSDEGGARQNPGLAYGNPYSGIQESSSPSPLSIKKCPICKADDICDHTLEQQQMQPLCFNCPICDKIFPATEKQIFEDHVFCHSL

[1] = molecular target: transmembrane 9 superfamily member 1 (TM9SF1), endogenous (human (endogenous in SW48, DLD1, HCT116, LoVo)) (UniProt O15321); assay: co-IP; endogenous proteins in lysates (RIPA) of colorectal cancer cells (SW48, DLD1, HCT116, LoVo); IP with anti-TM9SF1, anti-Vimentin or anti-Tollip antibody, protein A/G agarose, western blot
Flag-TM9SF1 (human) = Flag-TM9SF1 (human) (UniProt O15321); assay: co-IP; HCT116 or LoVo transfected with Flag-TM9SF1 for 48 h; IP with anti-Flag, blot with anti-TRIM21, anti-Vimentin, anti-Tollip and anti-Flag
[2] = molecular target: Vimentin, endogenous (human (endogenous in SW48, DLD1, HCT116, LoVo)) (UniProt P08670); assay: co-IP; endogenous proteins in lysates (RIPA) of colorectal cancer cells (SW48, DLD1, HCT116, LoVo); IP with anti-TM9SF1, anti-Vimentin or anti-Tollip antibody, protein A/G agarose, western blot
[3] = molecular target: Vimentin, endogenous (human (endogenous in SW48, DLD1, HCT116, LoVo)) (UniProt P08670); assay: co-IP; Fig. S6B-D, legend not shown; method taken from the paper's methods (co-IP is the only blot-based binding assay described); constructs and cells not told
Myc-Vimentin (human) = Myc-Vimentin (human) (UniProt P08670); assay: co-IP; Myc-Vimentin transfected in HCT116, LoVo, SW48 or DLD1; IP with anti-Myc, blot for endogenous Tollip and TRIM21; cells with Flag-TM9SF1 overexpression or vector, TM9SF1 knockdown, TRIM21 knockdown, CQ (50 μM) for 4 h

binding (Flag-OPTN): no binding
binding (Flag-NBR1): no binding
binding (Flag-NIX): no binding
binding (Flag-NDP52): no binding
Substance: Myc-Vimentin (from UniProt P08670 1-466)

binding [1]: binds
binding (Flag-TM9SF1 (human)): binds
Substance: Vimentin, endogenous (from UniProt P08670 1-466)

binding [2]: binds
Substance: transmembrane 9 superfamily member 1 (TM9SF1), endogenous (from UniProt O15321 28-606)

binding [3]: binds
binding (Myc-Vimentin (human)): binds
binding (Flag-TM9SF1 (human)): binds
Substance: tripartite motif containing 21 (TRIM21), endogenous (from UniProt P19474 1-475)
